# According to the supplement of paper PMC8728848:
# This is one part of the list.
# How the values were obtained:
# Assay in all cases: glycan array binding signal (z-score within array); higher = stronger binding
# Conditions in all cases: glycan notation: IUPAC condensed, linker removed
# [1] = target: Gal(b1-4)GlcNAc(b1-2)Man(a1-6)[GlcNAc(b1-2)Man(a1-3)]Man(b1-4)GlcNAc(b1-4)GlcNAc
# Method in brief: (§1)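 Glycan array binding is given as a within-array Z-score, which can be read as non-binding when negative. The arrays, 3228 of them, came from the Consortium for Functional Glycomics database and were retained only where the protein sequence was available. Z-scores were averaged across arrays of the same protein sequence at different concentrations or buffers and across linkers.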
# [2] = target: Gal(b1-4)GlcNAc(b1-2)Man(a1-6)[Man(a1-3)]Man(b1-4)GlcNAc(b1-4)GlcNAc
# Method in brief: as §1
# [3] = target: Gal(b1-4)GlcNAc(b1-2)[Gal(b1-4)GlcNAc(b1-4)]Man(a1-3)[Gal(b1-4)GlcNAc(b1-2)Man(a1-6)]Man(b1-4)GlcNAc(b1-4)GlcNAc
# Method in brief: as §1
# [4] = target: Gal(b1-4)GlcNAc(b1-2)[Gal(b1-4)GlcNAc(b1-4)]Man(a1-3)[Gal(b1-4)GlcNAc(b1-2)[Gal(b1-4)GlcNAc(b1-6)]Man(a1-6)]Man(b1-4)GlcNAc(b1-4)GlcNAc
# Method in brief: as §1
# [5] = target: Gal(b1-4)GlcNAc(b1-2)[Gal(b1-4)GlcNAc(b1-4)]Man(a1-3)[GlcNAc(b1-4)][Gal(b1-4)GlcNAc(b1-2)Man(a1-6)]Man(b1-4)GlcNAc(b1-4)GlcNAc
# Method in brief: as §1
# [6] = target: Gal(b1-4)GlcNAc(b1-2)[Gal(b1-4)GlcNAc(b1-4)]Man(a1-3)[GlcNAc(b1-4)][Gal(b1-4)GlcNAc(b1-2)[Gal(b1-4)GlcNAc(b1-6)]Man(a1-6)]Man(b1-4)GlcNAc(b1-4)GlcNAc
# Method in brief: as §1
# [7] = target: Gal(b1-4)GlcNAc(b1-2)[Gal(b1-4)GlcNAc(b1-6)]Man(a1-6)[Gal(b1-4)GlcNAc(b1-2)Man(a1-3)]Man(b1-4)GlcNAc(b1-4)GlcNAc
# Method in brief: as §1
# [8] = target: Gal(b1-4)GlcNAc(b1-2)[Gal(b1-4)GlcNAc(b1-6)]Man(a1-6)[Gal(b1-4)GlcNAc(b1-2)Man(a1-3)]Man(b1-4)GlcNAc(b1-4)[Fuc(a1-6)]GlcNAc
# Method in brief: as §1
# [9] = target: Gal(b1-4)GlcNAc(b1-2)[Gal(b1-4)GlcNAc(b1-6)]Man(a1-6)[GlcNAc(b1-4)][Gal(b1-4)GlcNAc(b1-2)Man(a1-3)]Man(b1-4)GlcNAc(b1-4)GlcNAc
# Method in brief: as §1
# [10] = target: Gal(b1-4)GlcNAc(b1-2)[Gal(b1-4)GlcNAc(b1-6)]Man(a1-6)[GlcNAc(b1-4)][Gal(b1-4)GlcNAc(b1-2)[Gal(b1-4)GlcNAc(b1-4)]Man(a1-3)]Man(b1-4)GlcNAc(b1-4)[Fuc(a1-6)]GlcNAc
# Method in brief: as §1
# [11] = target: Gal(b1-4)GlcNAc(b1-3)Gal(b1-3)GalNAc
# Method in brief: as §1
# [12] = target: Gal(b1-4)GlcNAc(b1-3)Gal(b1-3)GlcNAc
# Method in brief: as §1
# [13] = target: Gal(b1-4)GlcNAc(b1-3)Gal(b1-4)Glc
# Method in brief: as §1
# [14] = target: Gal(b1-4)GlcNAc(b1-3)Gal(b1-4)GlcNAc
# Method in brief: as §1
# [15] = target: Gal(b1-4)GlcNAc(b1-3)Gal(b1-4)GlcNAc(b1-2)Man(a1-3)[Gal(b1-4)GlcNAc(b1-3)Gal(b1-4)GlcNAc(b1-2)Man(a1-6)]Man(b1-4)GlcNAc(b1-4)GlcNAc
# Method in brief: as §1
# [16] = target: Gal(b1-4)GlcNAc(b1-3)Gal(b1-4)GlcNAc(b1-2)Man(a1-3)[Gal(b1-4)GlcNAc(b1-3)Gal(b1-4)GlcNAc(b1-2)Man(a1-6)]Man(b1-4)GlcNAc(b1-4)[Fuc(a1-6)]GlcNAc
# Method in brief: as §1
# [17] = target: Gal(b1-4)GlcNAc(b1-3)Gal(b1-4)GlcNAc(b1-2)[Gal(b1-4)GlcNAc(b1-3)Gal(b1-4)GlcNAc(b1-6)]Man(a1-6)[Gal(b1-4)GlcNAc(b1-3)Gal(b1-4)GlcNAc(b1-2)Man(a1-3)]Man(b1-4)GlcNAc(b1-4)GlcNAc
# Method in brief: as §1
# [18] = target: Gal(b1-4)GlcNAc(b1-3)Gal(b1-4)GlcNAc(b1-2)[Gal(b1-4)GlcNAc(b1-3)Gal(b1-4)GlcNAc(b1-6)]Man(a1-6)[Gal(b1-4)GlcNAc(b1-3)Gal(b1-4)GlcNAc(b1-2)Man(a1-3)]Man(b1-4)GlcNAc(b1-4)[Fuc(a1-6)]GlcNAc
# Method in brief: as §1
binder,measurement,setting,value
"AT1G15820(2) (Arabidopsis thaliana), Q9LMQ2 (protein) MAMAVSGAVLSGLGSSFLTGGKRGATALASGVGTGAQRVGRKTLIVAAAAAQPKKSWIPAVKGGGNFLDPEWLDGSLPGDFGFDPLGLGKDPAFLKWYREAELIHGRWAMAAVLGIFVGQAWSGVAWFEAGAQPDAIAPFSFGSLLGTQLLLMGWVESKRWVDFFNPDSQSVEWATPWSKTAENFANYTGDQGYPGGRFFDPLGLAGKNRDGVYEPDFEKLERLKLAEIKHSRLAMVAMLIFYFEAGQGKTPLGALGL",glycan array binding signal (z-score),[1],0.324
same,glycan array binding signal (z-score),[2],-0.33
same,glycan array binding signal (z-score),[3],-0.39
same,glycan array binding signal (z-score),[4],-0.037
same,glycan array binding signal (z-score),[5],-0.16
same,glycan array binding signal (z-score),[6],0.16
same,glycan array binding signal (z-score),[7],-0.544
same,glycan array binding signal (z-score),[8],-0.418
same,glycan array binding signal (z-score),[9],0.1
same,glycan array binding signal (z-score),[10],-0.453
same,glycan array binding signal (z-score),[11],-0.659
same,glycan array binding signal (z-score),[12],-0.454
same,glycan array binding signal (z-score),[13],-0.362
same,glycan array binding signal (z-score),[14],-0.4
same,glycan array binding signal (z-score),[15],0.779
same,glycan array binding signal (z-score),[16],-0.156
same,glycan array binding signal (z-score),[17],0.773
same,glycan array binding signal (z-score),[18],0.385
